In paper PMC4357395 (Journal of Medicinal Chemistry, 2015):
Like-named read-outs stand apart in the source and are kept apart here.

Key:
[1] = biological target: T1, PanK3 (Homo sapiens, UniProt Q9H999); experiment: PanK3 Kinase Glo; assay type: biochemical; settings: for activity against PanK3, in words: SAR discussion
[2] = biological target: T2, PanK1β (Homo sapiens, UniProt Q8TE04); experiment: PanK1β dose response analysis; assay type: biochemical; settings: SAR discussion
T2 sequence (Q8TE04 1-373 isoform Q8TE04-2): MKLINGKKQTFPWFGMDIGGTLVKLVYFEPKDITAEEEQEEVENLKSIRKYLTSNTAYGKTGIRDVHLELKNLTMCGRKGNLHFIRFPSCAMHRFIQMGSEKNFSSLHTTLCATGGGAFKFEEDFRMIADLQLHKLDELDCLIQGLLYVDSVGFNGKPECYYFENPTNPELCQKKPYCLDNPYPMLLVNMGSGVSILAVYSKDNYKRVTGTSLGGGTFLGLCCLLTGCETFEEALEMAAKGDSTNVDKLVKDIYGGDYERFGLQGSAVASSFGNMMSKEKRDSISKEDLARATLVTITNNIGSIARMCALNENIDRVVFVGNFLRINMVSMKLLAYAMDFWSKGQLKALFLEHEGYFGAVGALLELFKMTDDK

[3] = biological target: ATP–PanK3 complex (Homo sapiens, UniProt Q9H999); assay type: binding
[4] = biological target: T1, PanK3; assay type: biochemical; settings: PanK3 kinetics
[5] = system: C3A cells; experiment: Inhibition of CoA biosynthesis, [3H]pantothenate metabolic labeling

T1 sequence (Q9H999 whole entry): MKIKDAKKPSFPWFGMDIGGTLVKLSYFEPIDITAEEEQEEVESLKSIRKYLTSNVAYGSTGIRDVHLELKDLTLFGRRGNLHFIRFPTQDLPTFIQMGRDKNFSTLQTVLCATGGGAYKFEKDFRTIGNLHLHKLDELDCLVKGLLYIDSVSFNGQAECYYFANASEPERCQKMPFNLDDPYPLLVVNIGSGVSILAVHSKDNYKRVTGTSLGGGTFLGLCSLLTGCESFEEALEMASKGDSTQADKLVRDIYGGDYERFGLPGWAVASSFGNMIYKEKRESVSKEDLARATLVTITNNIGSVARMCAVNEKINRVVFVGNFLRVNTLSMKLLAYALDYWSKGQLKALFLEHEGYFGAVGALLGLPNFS

`CSc1ccc(NC(=O)CCc2c(C)nc3c4cccnc4nn3c2C)cc1` [Compound 14] was tested, and the “reduction of activity on moving −SMe from meta- to para-position” value ([1]; compared to 7) was 30 fold.

`Cc1nc2c3cccnc3nn2c(C)c1CCC(=O)N(C)c1ccccc1` [Compound 16] was tested, and the “activity against PanK3, in words” value [1] was “completely inactive” and the “activity against PanK1β, in words” value [2] was “completely inactive”.

In the case of `CSc1cccc(NC(=O)CCc2c(C)nc3c4cccnc4nn3c2C)c1` [Compound 7], the “thermal stabilization of PanK3” value ([3]; ATP absent) is reported as “did not stabilize”, the “thermal stabilization of PanK3” value ([3]; in the presence of 2 mM ATP/Mg2+) is reported as “increased” and the “effect on Vmax and Km for ATP” value [4] is reported as “lowered both the Vmax and Km for ATP”. For the same molecule, the “effect on cell viability” value ([5]; C3A cells, at the concentrations used in the labeling experiment) was “no effect on cell viability”, the “[3H]pantothenate incorporation into CoA” value ([5]; cultured C3A cells) was “dose-dependent decrease” and the IC50 ([5]; read-out: apparent IC50, inhibition of CoA biosynthesis, C3A cells labeled with [3H]pantothenate for 24 h) was 900 ± 110 nM.

For `Cc1nc2c3cccnc3nn2c(C)c1CCC(=O)NC1CCCCC1` [Compound 17], the “activity against PanK3, in words” value [1] was “abrogated the activity” and the “activity against PanK1β, in words” value [2] was “decreased the activity”.
